According to the supplement of paper PMC4604168 (melanoma cell lines):
The other results are listed elsewhere or left out. Most values come without repeats; read them as rough.

Assays:
Test in all cases: cell count relative to DMSO control; melanoma cells; higher = more viable cells
MZ2-MEL = conditions: library dose: low library concentration; 72 h
MeWo = conditions: library dose: low library concentration; 72 h
RPMI7951 = conditions: library dose: low library concentration; 72 h
RVH-421 = conditions: library dose: low library concentration; 72 h
SkMel28 = conditions: library dose: low library concentration; 72 h
SkMel30 = conditions: library dose: low library concentration; 72 h
SkMel5 = conditions: library dose: low library concentration; 72 h
UACC257 = conditions: library dose: low library concentration; 72 h
UACC62 = conditions: library dose: low library concentration; 72 h
WM115 = conditions: library dose: low library concentration; 72 h
WM1716 = conditions: library dose: low library concentration; 72 h
WM1745 = conditions: library dose: low library concentration; 72 h
WM3526 = conditions: library dose: low library concentration; 72 h
WM3619 = conditions: library dose: low library concentration; 72 h
WM451Lu = conditions: library dose: low library concentration; 72 h
501Mel = conditions: library dose: standard library concentration; 72 h
A101D = conditions: library dose: standard library concentration; 72 h
A2058 = conditions: library dose: standard library concentration; 72 h
A375 = conditions: library dose: standard library concentration; 72 h
SkMel2 = conditions: library dose: low library concentration; 72 h

SMILES	cell count (MZ2-MEL)	cell count (MeWo)	cell count (RPMI7951)	cell count (RVH-421)	cell count (SkMel28)	cell count (SkMel30)	cell count (SkMel5)	cell count (UACC257)	cell count (UACC62)	cell count (WM115)	cell count (WM1716)	cell count (WM1745)	cell count (WM3526)	cell count (WM3619)	cell count (WM451Lu)	cell count (501Mel)	cell count (A101D)	cell count (A2058)	cell count (A375)	cell count (SkMel2)
Cn1nnc2c(C(N)=O)ncn2c1=O [temozolomide] + O=c1cc(-c2cccc3c2Sc2ccccc2S3)oc(N2CCOCC2)c1 [KU55933] (first compound 2 µM, partner dose 1 µM)	85.5%	99.1%	116%	120%	91.9%	114%	96.6%	97.8%	84.4%	103%	88.8%	101%	98%	105%	101%	–	–	–	–	–
O=C(Nc1ccccc1)c1cc([N+](=O)[O-])ccc1Cl + CC(C)CCN1c2nc(Nc3cc(F)c(O)c(F)c3)ncc2N(C)C(=O)C1C [BID1870] (first compound 2 µM, partner dose 0.2 µM)	99.8%	80.3%	125%	102%	104%	103%	88.6%	88.3%	91.3%	81.9%	92%	89.1%	101%	111%	109%	–	–	–	–	–
Cn1nnc2c(C(N)=O)ncn2c1=O [temozolomide] + c1cc(-c2cnn3cc(-c4ccc(OCCN5CCCCC5)cc4)cnc23)ccn1 [Dorsomorphin] (first compound 2 µM, partner dose 0.4 µM)	84.4%	97.3%	99.3%	102%	72%	85.2%	85%	89.8%	69.6%	92.3%	90.8%	94.2%	89.4%	99.5%	105%	–	–	–	–	–
Cn1nnc2c(C(N)=O)ncn2c1=O [temozolomide] + O=C1NC(=O)/C(=C/c2ccc(-c3ccc(F)cc3O)o2)S1 [AS252424] (first compound 2 µM, partner dose 1 µM)	84.4%	108%	88.9%	94.3%	75.1%	72.9%	81.8%	83.8%	80.9%	88.1%	60.7%	110%	82%	108%	95.4%	–	–	–	–	–
Cc1cc(N2CCOCC2)cc2[nH]c(-c3c(NC[C@@H](O)c4cccc(Cl)c4)cc[nH]c3=O)nc12 + CCN(CC)CCCCNc1ncc2cc(-c3cc(OC)cc(OC)c3)c(NC(=O)NC(C)(C)C)nc2n1 [PD173074] (first compound 0.2 µM, partner dose 0.1 µM)	104%	93.6%	102%	120%	107%	84.9%	91.5%	74.4%	87.8%	101%	99.3%	78.6%	93%	88.3%	94.1%	–	–	–	–	–
O=C(Nc1ccccc1)c1cc([N+](=O)[O-])ccc1Cl + COc1ccc(COc2ccc(Cc3cnc(N)nc3N)cc2OC)cc1 [GW2580] (first compound 2 µM, partner dose 1 µM)	103%	96.3%	82.4%	97.8%	105%	116%	85.5%	83.4%	95.7%	96%	108%	100%	103%	132%	107%	–	–	–	–	–
O=C(O)[C@@H]1[O][Sb](=[O])([O][Sb]2(=[O])[O][C@H]([C@H](O)CO)[C@H](O)[C@H](C(=O)O)[O]2)[O][C@H]([C@H](O)CO)[C@@H]1O (some centres not stated) [stibogluconate] + CO[C@H]1C[C@@H]2CC[C@@H](C)[C@@](O)(O2)C(=O)C(=O)N2CCCC[C@H]2C(=O)O[C@H]([C@H](C)C[C@@H]2CC[C@@H](OCCO)[C@H](OC)C2)CC(=O)[C@H](C)/C=C(\C)[C@@H](O)[C@@H](OC)C(=O)[C@H](C)C[C@H](C)/C=C/C=C/C=C/1C [everolimus] (first compound 2 µM, partner dose 0.02 µM)	80.5%	77.5%	102%	85%	45.5%	68.7%	–	–	74.5%	84.2%	78.4%	96.9%	70.7%	94.2%	78.7%	–	–	–	–	–
Cn1nnc2c(C(N)=O)ncn2c1=O [temozolomide] + O=S(=O)(c1ccccc1)N(CC(F)(F)F)c1ccc(C(O)(C(F)(F)F)C(F)(F)F)cc1 [T0901317] (first compound 2 µM, partner dose 1.4 µM)	87.2%	121%	113%	92.7%	68.9%	95.7%	82.7%	84.1%	81%	97%	95.5%	90%	96.6%	119%	110%	–	–	–	–	–
Cc1cc(N2CCOCC2)cc2[nH]c(-c3c(NC[C@@H](O)c4cccc(Cl)c4)cc[nH]c3=O)nc12 + c1cc(-c2cnn3cc(-c4ccc(OCCN5CCCCC5)cc4)cnc23)ccn1 [Dorsomorphin] (first compound 0.2 µM, partner dose 0.4 µM)	99.6%	95.7%	95%	101%	96.7%	97.4%	93.3%	71.7%	106%	106%	101%	63.6%	85.8%	73.9%	102%	–	–	–	–	–
Cn1nnc2c(C(N)=O)ncn2c1=O [temozolomide] + CC(C)CCN1c2nc(Nc3cc(F)c(O)c(F)c3)ncc2N(C)C(=O)C1C [BID1870] (first compound 2 µM, partner dose 0.2 µM)	97.5%	96.8%	127%	97.4%	84.4%	73.6%	101%	93.1%	79.7%	96.7%	91.4%	96.1%	106%	82.8%	93.3%	–	–	–	–	–
O=C(Nc1cc(C(F)(F)F)cc(C(F)(F)F)c1)c1cc(Cl)ccc1O + CO[C@H]1C[C@@H]2CC[C@@H](C)[C@@](O)(O2)C(=O)C(=O)N2CCCC[C@H]2C(=O)O[C@H]([C@H](C)C[C@@H]2CC[C@@H](OCCO)[C@H](OC)C2)CC(=O)[C@H](C)/C=C(\C)[C@@H](O)[C@@H](OC)C(=O)[C@H](C)C[C@H](C)/C=C/C=C/C=C/1C [everolimus] (first compound 0.016 µM, partner dose 0.02 µM)	73.2%	60%	78.2%	93%	54.3%	72.6%	–	–	63.7%	72.4%	72.1%	78.8%	69.1%	60.7%	81.5%	–	–	–	–	–
O=C(Nc1ccccc1)c1cc([N+](=O)[O-])ccc1Cl + Oc1nc(-c2ccc(C(F)(F)F)cc2)nc2c1CSCC2 [XAV939] (first compound 2 µM, partner dose 2 µM)	97.2%	83.3%	101%	79.3%	91.8%	99.6%	88%	91.2%	89%	98.6%	60.8%	82.9%	115%	93.1%	98%	–	–	–	–	–
Cc1cc(N2CCOCC2)cc2[nH]c(-c3c(NC[C@@H](O)c4cccc(Cl)c4)cc[nH]c3=O)nc12 + COc1cc(N2CCC(N3CCN(C)CC3)CC2)ccc1Nc1ncc(Cl)c(Nc2ccccc2S(=O)(=O)C(C)C)n1 [NVP-TAE684] (first compound 0.2 µM, partner dose 0.08 µM)	94.7%	96.2%	89.1%	104%	89.4%	84.9%	84.6%	77.3%	106%	98.6%	97.9%	68.8%	84.9%	99.2%	90.7%	–	–	–	–	–
Cn1nnc2c(C(N)=O)ncn2c1=O [temozolomide] + O=C(Nc1ccccc1)c1cc([N+](=O)[O-])ccc1Cl [GW9662] (first compound 2 µM, partner dose 2 µM)	93.2%	95.2%	104%	90.7%	80.2%	72.1%	93.7%	88.6%	76.7%	103%	78.2%	75.5%	81.9%	119%	113%	–	–	–	–	–
Cc1cc(N2CCOCC2)cc2[nH]c(-c3c(NC[C@@H](O)c4cccc(Cl)c4)cc[nH]c3=O)nc12 + COc1cc2ncnc(Nc3ccc(Oc4ccccc4)cc3)c2cc1OC [SrcI1] (first compound 0.2 µM, partner dose 2 µM)	99%	79.5%	116%	110%	89.3%	85.3%	89.4%	81.2%	107%	112%	117%	77.2%	84.6%	97.2%	122%	–	–	–	–	–
Cn1nnc2c(C(N)=O)ncn2c1=O [temozolomide] + c1cc(-c2cnn3cc(-c4ccc(OCCN5CCCCC5)cc4)cnc23)ccn1 [Dorsomorphin] (first compound 10 µM, partner dose 2 µM)	–	–	–	–	–	–	–	–	–	–	–	–	–	–	–	51%	81.9%	46.4%	67.2%	–
Cc1cc(N2CCOCC2)cc2[nH]c(-c3c(NC[C@@H](O)c4cccc(Cl)c4)cc[nH]c3=O)nc12 + Cc1cc([N+](=O)[O-])ccc1NS(=O)(=O)c1cc(Cl)ccc1Cl [FH535] (first compound 1 µM, partner dose 5 µM)	–	–	–	–	–	–	–	–	–	–	–	–	–	–	–	57%	55.6%	81.3%	80.4%	–
O=C(O)c1ccc2c(c1)nc(Nc1cccc(Cl)c1)c1ccncc12 + C#Cc1cccc(Nc2ncnc3cc(OCCOC)c(OCCOC)cc23)c1 [erlotinib] (first compound 0.4 µM, partner dose 0.8 µM)	–	84.8%	91.1%	121%	123%	72.3%	–	–	80.2%	107%	88.6%	95.1%	77.4%	89.2%	79.8%	–	–	–	–	95.7%
Cc1cc(N2CCOCC2)cc2[nH]c(-c3c(NC[C@@H](O)c4cccc(Cl)c4)cc[nH]c3=O)nc12 + CC(C)CCN1c2nc(Nc3cc(F)c(O)c(F)c3)ncc2N(C)C(=O)C1C [BID1870] (first compound 0.2 µM, partner dose 0.2 µM)	–	81.5%	111%	91.8%	107%	60.8%	94.3%	79.9%	97.7%	110%	93.2%	76%	87.7%	94.7%	91.8%	–	–	–	–	–
O=C(O)[C@@H]1[O][Sb](=[O])([O][Sb]2(=[O])[O][C@H]([C@H](O)CO)[C@H](O)[C@H](C(=O)O)[O]2)[O][C@H]([C@H](O)CO)[C@@H]1O (some centres not stated) [stibogluconate] + O=C1NC(=O)/C(=C/c2ccc(-c3ccc(F)cc3O)o2)S1 [AS252424] (first compound 10 µM, partner dose 5 µM)	–	–	–	–	–	–	–	–	–	–	–	–	–	–	–	98.1%	109%	84.2%	111%	–
O=C(Nc1cc(C(F)(F)F)cc(C(F)(F)F)c1)c1cc(Cl)ccc1O + Nc1ncn([C@H]2C[C@H](O)[C@@H](CO)O2)c(=O)n1 [decitabine] (first compound 0.016 µM, partner dose 0.1 µM)	–	100%	75.4%	80.5%	101%	93.4%	–	–	76.3%	85.6%	85.4%	83%	98.4%	114%	88%	–	–	–	–	–
